According to the supplement of paper PMC4967469:
Lines with a small IC50 respond at low doses; a fit beyond the top or the lowest dose is shown as a bound at that dose. For AUC the same curve is integrated over the 256-fold range of doses and scaled to a fraction; the more sensitive the line, the further below 1. For some assays here: An inferred top dose is not printed in the source and was worked back from the curve model. For some assays here: Where an entry number is given, a second screen of the drug exists; the two often differ.

Key:
Test in all cases: Viability of human cancer cell lines after 72 h of drug (GDSC screen)
Docetaxel = compound: CC(=O)O[C@@]12CO[C@@H]1C[C@H](O)[C@@]1(C)C(=O)[C@H](O)C3=C(C)[C@@H](OC(=O)[C@H](O)[C@@H](NC(=O)OC(C)(C)C)c4ccccc4)C[C@@](O)([C@@H](OC(=O)c4ccccc4)[C@H]21)C3(C)C [Docetaxel]; conditions: top dose 0.0125 µM
Protocol: (§1)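 Human cancer cell lines in 384-well plates, medium with 10% serum, drug for 72 h over a 256-fold dose range (nine 2-fold or five 4-fold steps up to the top dose). Adherent lines were fixed and stained with the nucleic acid dye Syto60, suspension lines read with resazurin; signal relative to control wells, capped at 0 and 100%. One two-parameter sigmoid per drug and line, fitted in a mixed model over all curves with the slope shared within a line.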

AMG-706 = compound: CC1(C)CNc2cc(NC(=O)c3cccnc3NCc3ccncc3)ccc21 [AMG-706]; conditions: top dose 2 µM; top dose inferred
Protocol: as §1

Cyclopamine = compound: CC1=C2C[C@H]3[C@@H](CC=C4C[C@@H](O)CC[C@@]43C)[C@@H]2CC[C@]12O[C@@H]1C[C@H](C)CN[C@H]1[C@H]2C [Cyclopamine]; conditions: top dose 16 µM; top dose inferred
Protocol: as §1

JNK Inhibitor VIII = compound: CCOc1nc(NC(=O)Cc2cc(OC)ccc2OC)cc(N)c1C#N [JNK Inhibitor VIII]; conditions: top dose 10 µM; top dose inferred
Protocol: as §1

NSC-207895 = compound: CN1CCN(c2ccc([N+](=O)[O-])c3no[n+]([O-])c23)CC1 [NSC-207895]; conditions: top dose 20 µM; top dose inferred
Protocol: as §1

FTI-277 = compound: COC(=O)[C@H](CCSC)NC(=O)c1ccc(NC[C@@H](N)CS)cc1-c1ccccc1 [FTI-277]; conditions: top dose 1.024 µM; top dose inferred
Protocol: as §1

YM155 = compound: COCC[n+]1c2c(n(Cc3cnccn3)c1C)C(=O)c1ccccc1C2=O [YM155]; conditions: top dose 5.12 µM
Protocol: as §1

NVP-TAE684 = compound: COc1cc(N2CCC(N3CCN(C)CC3)CC2)ccc1Nc1ncc(Cl)c(Nc2ccccc2S(=O)(=O)C(C)C)n1 [NVP-TAE684]; conditions: top dose 2 µM
Protocol: as §1

OSI-906 = compound: C[C@]1(O)C[C@@H](c2nc(-c3ccc4ccc(-c5ccccc5)nc4c3)c3c(N)nccn32)C1 [OSI-906]; conditions: top dose 2.56 µM; top dose inferred
Protocol: as §1

PHA-665752 = compound: Cc1[nH]c(/C=C2\C(=O)Nc3ccc(S(=O)(=O)Cc4c(Cl)cccc4Cl)cc32)c(C)c1C(=O)N1CCC[C@@H]1CN1CCCC1 [PHA-665752]; conditions: top dose 2 µM
Protocol: as §1

SB-715992 = compound: Cc1ccc(C(=O)N(CCCN)[C@@H](c2nc3cc(Cl)ccc3c(=O)n2Cc2ccccc2)C(C)C)cc1 [SB-715992]; conditions: top dose 0.128 µM; top dose inferred
Protocol: as §1

JQ1 = compound: Cc1sc2c(c1C)C(c1ccc(Cl)cc1)=N[C@@H](CC(=O)OC(C)(C)C)c1nnc(C)n1-2 [JQ1]
Protocol: as §1

Belinostat = compound: O=C(/C=C/c1cccc(S(=O)(=O)Nc2ccccc2)c1)NO [Belinostat]; conditions: top dose 20 µM; top dose inferred
Protocol: as §1

CGP-60474 = compound: OCCCNc1cc(-c2ccnc(Nc3cccc(Cl)c3)n2)ccn1 [CGP-60474]; conditions: top dose 0.256 µM; top dose inferred
Protocol: as §1

JNJ-26854165 = compound: c1ccc2c(CCNc3ccc(Nc4ccncc4)cc3)c[nH]c2c1 [JNJ-26854165]; conditions: top dose 10 µM
Protocol: as §1

[1] = top dose 1 µM, screen: GDSC drug entry 1218, top dose inferred
[2] = top dose 2.56 µM, screen: GDSC drug entry 163

Cell Line	AUC (Docetaxel)	IC50 (Docetaxel) [nM]	AUC (AMG-706)	IC50 (AMG-706) [nM]	AUC (Cyclopamine)	IC50 (Cyclopamine) [nM]	AUC (JNK Inhibitor VIII)	IC50 (JNK Inhibitor VIII) [nM]	AUC (NSC-207895)	IC50 (NSC-207895) [nM]	AUC (FTI-277)	IC50 (FTI-277) [nM]	AUC (YM155)	IC50 (YM155) [nM]	AUC (NVP-TAE684)	IC50 (NVP-TAE684) [nM]	AUC (OSI-906)	IC50 (OSI-906) [nM]	AUC (PHA-665752)	IC50 (PHA-665752) [nM]	AUC (SB-715992)	IC50 (SB-715992) [nM]	AUC (JQ1; [1])	IC50 (JQ1; [1]) [nM]	AUC (JQ1; [2])	IC50 (JQ1; [2]) [nM]	AUC (Belinostat)	IC50 (Belinostat) [nM]	AUC (CGP-60474)	IC50 (CGP-60474) [nM]	AUC (JNJ-26854165)	IC50 (JNJ-26854165) [nM]
BE-13 (lymphoblastic leukaemia, suspension)	0.767	4.37	0.987	> 2000	0.969	> 16000	0.987	> 10000	0.846	13200	0.984	> 1020	0.021	< 20	0.82	1060	0.977	> 2560	0.907	> 2000	0.697	27.5	0.984	> 1000	0.701	564	0.167	133	0.77	91.5	0.875	8770
COLO-320-HSR (large intestine, suspension)	0.992	> 12.5	0.991	> 2000	0.983	> 16000	0.992	> 10000	0.98	> 20000	0.989	> 1020	0.94	> 5120	0.594	218	0.695	519	0.978	> 2000	0.903	> 128	0.991	> 1000	0.847	1530	0.397	678	0.663	42.3	0.964	> 10000
ES8 (Ewing sarcoma, adherent)	0.529	0.93	0.933	> 2000	0.967	> 16000	0.944	> 10000	0.988	> 20000	0.967	> 1020	0.027	< 20	0.804	911	0.861	1920	0.98	> 2000	0.551	10.9	0.977	> 1000	0.575	252	0.215	198	0.745	75.4	0.766	3430
GDM-1 (acute myeloid leukaemia, suspension)	0.984	> 12.5	0.761	680	0.956	> 16000	0.985	> 10000	0.873	17900	0.976	> 1020	0.268	72.1	0.379	59	0.488	149	0.883	1970	0.635	18.5	0.975	> 1000	0.625	347	0.249	247	0.651	41	0.951	> 10000
GR-ST (lymphoblastic leukaemia, suspension)	0.925	> 12.5	0.969	> 2000	0.917	> 16000	0.926	> 10000	0.882	> 20000	0.976	> 1020	0.035	< 20	0.755	811	0.932	> 2560	0.97	> 2000	0.751	50	0.907	> 1000	0.656	479	0.375	525	0.857	> 256	0.722	3080
KS-1 (glioma, adherent)	0.626	1.9	0.962	> 2000	0.888	> 16000	0.976	> 10000	0.927	> 20000	0.932	> 1020	0.036	< 20	0.574	209	0.328	46.6	0.928	> 2000	0.826	104	0.968	> 1000	0.546	220	0.498	1240	0.538	20.9	0.89	> 10000
L-363 (myeloma, suspension)	0.869	8.98	0.99	> 2000	0.932	> 16000	0.989	> 10000	0.911	> 20000	0.99	> 1020	0.02	< 20	0.812	893	0.815	1170	0.99	> 2000	0.585	13.2	0.99	> 1000	0.77	844	0.339	479	0.643	37.4	0.801	4130
LB1047-RCC (kidney, adherent)	0.858	12.5	0.813	1250	0.962	> 16000	0.904	> 10000	0.929	> 20000	0.967	> 1020	0.092	< 20	0.76	789	0.798	1400	0.93	> 2000	0.963	> 128	0.979	> 1000	0.86	> 2560	0.361	491	0.568	25.1	0.757	3850
LS-411N (large intestine, adherent)	0.705	3.39	0.979	> 2000	0.963	> 16000	0.982	> 10000	0.849	> 20000	0.941	> 1020	0.07	< 20	0.704	538	0.823	1950	0.967	> 2000	0.744	47.5	0.979	> 1000	0.55	226	0.209	139	0.622	37.3	0.902	> 10000
MPP-89 (mesothelioma, adherent)	0.679	2.91	0.972	> 2000	0.936	> 16000	0.971	> 10000	0.902	> 20000	0.98	> 1020	0.648	935	0.691	508	0.918	> 2560	0.966	> 2000	0.959	> 128	0.978	> 1000	0.899	> 2560	0.223	147	0.742	99.7	0.872	> 10000
MZ1-PC (pancreas, adherent)	0.586	1.43	0.974	> 2000	0.965	> 16000	0.98	> 10000	0.853	> 20000	0.949	> 1020	0.04	< 20	0.543	169	0.793	1490	0.978	> 2000	0.635	20.7	0.977	> 1000	0.586	292	0.313	326	0.639		0.867	> 10000
NB(TU)1-10 (neuroblastoma, adherent)	0.993	> 12.5	0.993	> 2000	0.992	> 16000	0.986	> 10000	0.914	> 20000	0.989	> 1020	0.728	1270	0.592	216	0.46	127	0.975	> 2000	0.977	> 128	0.992	> 1000	0.521	181	0.283	335	0.762	80	0.976	> 10000
NCI-H345 (small cell lung carcinoma, suspension)	0.986	> 12.5	0.988	> 2000	0.99	> 16000	0.989	> 10000	0.879	> 20000	0.99	> 1020	0.048	< 20	0.973	> 2000	0.99	> 2560	0.99	> 2000	0.988	> 128	0.989	> 1000	0.99	> 2560	0.378	565	0.848	206	0.983	> 10000
NOS-1 (osteosarcoma, adherent)	0.85	> 12.5	0.914	> 2000	0.909	> 16000	0.976	> 10000	0.9	> 20000	0.964	> 1020	0.073	< 20	0.463	96.6	0.661	501	0.884	> 2000	0.691	31.4	0.977	> 1000	0.5	160	0.312	328	0.514	17.6	0.803	6370
OCI-AML5 (acute myeloid leukaemia, suspension)	0.884	11.5	0.987	> 2000	0.979	> 16000	0.989	> 10000	0.889	19400	0.988	> 1020	0.241	62.3	0.614	249	0.58	259	0.956	> 2000	0.607	15.3	0.986	> 1000	0.68	484	0.152	121	0.782	97.1	0.972	> 10000
